Reference: the supplement of paper PMC4604168 (melanoma cell lines)
This is one part of the list. Single values are uncertain, as repeats are few or missing.

Assays:
Test in all cases: cell count relative to DMSO control; melanoma cells; higher = more viable cells
Conditions in all cases: library dose: low library concentration; 72 h
WM115 = system: WM115
WM1716 = system: WM1716
WM1745 = system: WM1745
WM3526 = system: WM3526
WM3619 = system: WM3619
WM451Lu = system: WM451Lu
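Further: cell number obtained by counting DAPI-stained nuclei in high-throughput microscope images with image analysis software, screen run in 1,536-well plates.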

| Compound | cell count (WM115) | cell count (WM1716) | cell count (WM1745) | cell count (WM3526) | cell count (WM3619) | cell count (WM451Lu) |
| --- | --- | --- | --- | --- | --- | --- |
| Cn1cc(C2=C(c3cn(C4CCN(Cc5ccccn5)CC4)c4ccccc34)C(=O)NC2=O)c2ccccc21 [Enzastaurin] + C[C@]1(O)C[C@@H](c2nc(-c3ccc4ccc(-c5ccccc5)nc4c3)c3c(N)nccn32)C1 [OSI906] (first compound 0.8 µM, partner dose 0.4 µM) | 99.6% | 95.5% | 99.3% | 113% | 92.5% | 105% |
| C[As](C)SC[C@H](NC(=O)CC[C@H](N)C(=O)O)C(=O)NCC(=O)O [Darinaparsin] + COc1ccc(COc2ccc(Cc3cnc(N)nc3N)cc2OC)cc1 [GW2580] (first compound 0.4 µM, partner dose 1 µM) | 93.1% | 90.7% | 82.6% | 109% | 104% | 109% |
| N.N.[Cl][Pt][Cl] [cisplatin] + O=C(O)[C@@H]1[O][Sb](=[O])([O][Sb]2(=[O])[O][C@H]([C@H](O)CO)[C@H](O)[C@H](C(=O)O)[O]2)[O][C@H]([C@H](O)CO)[C@@H]1O [stibogluconate] (first compound 1.6 µM, partner dose 2 µM) | 89.4% | 84.2% | 83.9% | 86.8% | 90.4% | 105% |
| C[C@]12O[C@H](C[C@]1(O)CO)n1c3ccccc3c3c4c(c5c6ccccc6n2c5c31)CNC4=O [Lestaurtinib] + C=C(c1ccc(C(=O)O)cc1)c1cc2c(cc1C)C(C)(C)CCC2(C)C [Bexarotene] (first compound 0.004 µM, partner dose 2 µM) | 97.6% | 97.5% | 87.1% | 70.3% | 109% | 103% |
| C[As](C)SC[C@H](NC(=O)CC[C@H](N)C(=O)O)C(=O)NCC(=O)O [Darinaparsin] + COCC[n+]1c2c(n(Cc3cnccn3)c1C)C(=O)c1ccccc1C2=O [YM155] (first compound 0.4 µM, partner dose 0.0004 µM) | 83.7% | 82.6% | 95% | 80.4% | 102% | 77.3% |
| Cn1cc(C2=C(c3cn(C4CCN(Cc5ccccn5)CC4)c4ccccc34)C(=O)NC2=O)c2ccccc21 [Enzastaurin] + Oc1nc(-c2ccc(C(F)(F)F)cc2)nc2c1CSCC2 [XAV939] (first compound 0.8 µM, partner dose 2 µM) | 97.6% | 81.4% | 88.9% | 84.2% | 96.9% | 115% |
| Cn1cc(C2=C(c3cn(C4CCN(Cc5ccccn5)CC4)c4ccccc34)C(=O)NC2=O)c2ccccc21 [Enzastaurin] + Nc1ccn([C@@H]2O[C@H](CO)[C@@H](O)C2(F)F)c(=O)n1 [gemcitabine] (first compound 0.8 µM, partner dose 0.0004 µM) | 111% | 121% | 78.7% | 79.9% | 90.5% | 101% |
| C[As](C)SC[C@H](NC(=O)CC[C@H](N)C(=O)O)C(=O)NCC(=O)O [Darinaparsin] + O=C(O)c1ccc(-c2c[nH]c3ncc(-c4ccccc4)cc23)cc1C1CCCC1 [GSK650394] (first compound 0.4 µM, partner dose 0.16 µM) | 87.8% | 108% | 85.6% | 77.9% | 105% | 99% |
| C[C@]12O[C@H](C[C@]1(O)CO)n1c3ccccc3c3c4c(c5c6ccccc6n2c5c31)CNC4=O [Lestaurtinib] + O=C(CCCCCCC(=O)Nc1ccccc1)NO [vorinostat] (first compound 0.004 µM, partner dose 0.08 µM) | 106% | 120% | 113% | 81.6% | 86.4% | 80.8% |
| Cn1cc(C2=C(c3cn(C4CCN(Cc5ccccn5)CC4)c4ccccc34)C(=O)NC2=O)c2ccccc21 [Enzastaurin] + CCCCCCCCCCCC1=C(O)C(=O)C=C(O)C1=O [Embelin] (first compound 0.8 µM, partner dose 1.2 µM) | 116% | 110% | 95.9% | 99.1% | 97.7% | 129% |
| Cn1cc(C2=C(c3cn(C4CCN(Cc5ccccn5)CC4)c4ccccc34)C(=O)NC2=O)c2ccccc21 [Enzastaurin] + CCN(CC)CCCCNc1ncc2cc(-c3cc(OC)cc(OC)c3)c(NC(=O)NC(C)(C)C)nc2n1 [PD173074] (first compound 0.8 µM, partner dose 0.1 µM) | 112% | 112% | 81.9% | 100% | 82.5% | 114% |
| N.N.[Cl][Pt][Cl] [cisplatin] + O=C(O)c1ccc(-c2c[nH]c3ncc(-c4ccccc4)cc23)cc1C1CCCC1 [GSK650394] (first compound 1.6 µM, partner dose 0.16 µM) | 88.7% | 121% | 99.2% | 62.1% | 75% | 87.5% |
| N.N.[Cl][Pt][Cl] [cisplatin] + C=CCNC1=C2C[C@@H](C)C[C@H](OC)[C@H](O)[C@@H](C)/C=C(\C)[C@H](OC(N)=O)[C@@H](OC)/C=C\C=C(/C)C(=O)NC(=CC1=O)C2=O [Tanespimycin] (first compound 1.6 µM, partner dose 0.002 µM) | 100% | 99% | 94.9% | 104% | 66.1% | 96.6% |
| Cn1cc(C2=C(c3cn(C4CCN(Cc5ccccn5)CC4)c4ccccc34)C(=O)NC2=O)c2ccccc21 [Enzastaurin] + O=C(O)c1ccc2c(c1)nc(Nc1cccc(Cl)c1)c1ccncc12 [CX4945] (first compound 0.8 µM, partner dose 0.4 µM) | 121% | 98.4% | 96.7% | 106% | 96.9% | 109% |
| N.N.[Cl][Pt][Cl] [cisplatin] + O=C(O)c1ccc2c(c1)nc(Nc1cccc(Cl)c1)c1ccncc12 [CX4945] (first compound 1.6 µM, partner dose 0.4 µM) | 118% | 91.5% | 98.7% | 137% | 81.9% | 114% |
| Cn1cc(C2=C(c3cn(C4CCN(Cc5ccccn5)CC4)c4ccccc34)C(=O)NC2=O)c2ccccc21 [Enzastaurin] + CC(C)CCN1c2nc(Nc3cc(F)c(O)c(F)c3)ncc2N(C)C(=O)C1C [BID1870] (first compound 0.8 µM, partner dose 0.2 µM) | 102% | 108% | 90.1% | 109% | 106% | 105% |
| Cn1cc(C2=C(c3cn(C4CCN(Cc5ccccn5)CC4)c4ccccc34)C(=O)NC2=O)c2ccccc21 [Enzastaurin] + CCN(CC)CCNC(=O)c1c(C)[nH]c(/C=C2\C(=O)Nc3ccc(F)cc32)c1C [sunitinib] (first compound 0.8 µM, partner dose 0.4 µM) | 116% | 123% | 88.9% | 108% | 94.3% | 129% |
| Cn1cc(C2=C(c3cn(C4CCN(Cc5ccccn5)CC4)c4ccccc34)C(=O)NC2=O)c2ccccc21 [Enzastaurin] + Nc1cccc2c1CN(C1CCC(=O)NC1=O)C2=O [lenalidomide] (first compound 0.8 µM, partner dose 1 µM) | 87.5% | 93.6% | 75.9% | 102% | 85.8% | 150% |
| C[As](C)SC[C@H](NC(=O)CC[C@H](N)C(=O)O)C(=O)NCC(=O)O [Darinaparsin] + COc1ccc(Cl)c(Nc2nc3ccccc3nc2NS(=O)(=O)c2cccc(NC(=O)C(C)(C)N)c2)c1 [XL147] (first compound 0.4 µM, partner dose 0.8 µM) | 99.7% | 94.8% | 91.3% | 86% | 90.9% | 89% |
| C[C@]12O[C@H](C[C@]1(O)CO)n1c3ccccc3c3c4c(c5c6ccccc6n2c5c31)CNC4=O [Lestaurtinib] + OCCn1cc(-c2cnc3nnn(Cc4ccc5ncccc5c4)c3n2)cn1 [PF04217903] (first compound 0.004 µM, partner dose 1 µM) | 101% | 134% | 87.4% | 94.6% | 100% | 88.9% |
| N.N.[Cl][Pt][Cl] [cisplatin] + CC1(C)NC(=O)N(c2ccc([N+](=O)[O-])c(C(F)(F)F)c2)C1=O [nilutamide] (first compound 1.6 µM, partner dose 1 µM) | 93.8% | 95% | 127% | 92.3% | 117% | 90% |
| C[C@]12O[C@H](C[C@]1(O)CO)n1c3ccccc3c3c4c(c5c6ccccc6n2c5c31)CNC4=O [Lestaurtinib] + CCCS(=O)(=O)Nc1ccc(F)c(C(=O)c2c[nH]c3ncc(Cl)cc23)c1F [PLX4720] (first compound 0.004 µM, partner dose 0.08 µM) | 108% | 120% | 94.5% | 78.6% | 114% | 100% |
| C[C@]12O[C@H](C[C@]1(O)CO)n1c3ccccc3c3c4c(c5c6ccccc6n2c5c31)CNC4=O [Lestaurtinib] + COCC[n+]1c2c(n(Cc3cnccn3)c1C)C(=O)c1ccccc1C2=O [YM155] (first compound 0.004 µM, partner dose 0.0004 µM) | 95.1% | 104% | 98.2% | 97.3% | 103% | 78.3% |
| N.N.[Cl][Pt][Cl] [cisplatin] + C=CCn1c(=O)c2cnc(Nc3ccc(N4CCN(C)CC4)cc3)nc2n1-c1cccc(C(C)(C)O)n1 [MK1775] (first compound 1.6 µM, partner dose 0.02 µM) | 79.3% | 86.7% | 94.6% | 94.7% | 88.3% | 106% |
| Cn1cc(C2=C(c3cn(C4CCN(Cc5ccccn5)CC4)c4ccccc34)C(=O)NC2=O)c2ccccc21 [Enzastaurin] + CN(NC(=O)CC(=O)NN(C)C(=S)c1ccccc1)C(=S)c1ccccc1 [STA4783] (first compound 0.8 µM, partner dose 0.006 µM) | 103% | 76.7% | 26.9% | 106% | 45.1% | 108% |
